ChEMBL document CHEMBL5724801, “EUbOPEN Chemogenomics Library - Multiplex” (2024)

Legend:
Assay type in all cases: toxicity, cell-based
Fibroblast = assay: Multiplex assay against human fibroblast
Method in brief: (§1)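 Phenotypes for tubulin, mitochondrial mass and membrane permeability are expressed as per cents of healthy-nucleus cells. Cells were stained live at seeding with Hoechst33342, BioTracker Green Microtubule Cytoskeleton Dye, MitoTracker Red and Annexin V Alexa Fluor 680, then imaged after compound addition on a CQ1 microscope at 37°C and 5% CO2. Machine-learning gating in CellPathfinder separated Hoechst high-intensity objects from normal cells, divided normal cells by nuclear state (healthy, pyknosed, fragmented) and divided pyknosed cells into mitotic or apoptotic.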

HEK-293T = assay: Multiplex assay against HEK293T; details: human; method in brief: as §1
U2OS = assay: Multiplex assay against U2OS; details: human; method in brief: as §1
[1] = 12 h, 1 µM, compound concentration 1 uM
[2] = 48 h, 10 µM, compound concentration 10 uM
[3] = 12 h, 10 µM, compound concentration 10 uM
[4] = 24 h, 1 µM, compound concentration 1 uM
[5] = 24 h, 10 µM, compound concentration 10 uM
[6] = 48 h, 1 µM, compound concentration 1 uM

Structure (SMILES) | Population Membrane Permeable-Phenotype (%) (Fibroblast; [2]) | Population Healthy Nuclei (%) (HEK-293T; [1]) | Population Healthy Nuclei (%) (HEK-293T; [3]) | Total Cell Count (HEK-293T; [4]) | Population Healthy Nuclei (%) (HEK-293T; [5]) | Population Pyknosed Nuclei (%) (HEK-293T; [6]) | Population Tubulin-Different-Phenotype (%) (HEK-293T; [6]) | Total Cell Count (HEK-293T; [6]) | Population Mitochondria Different-Phenotype (%) (U2OS; [3]) | Population Mitochondria Different-Phenotype (%) (U2OS; [5]) | Total Cell Count (U2OS; [2]) | Population Apoptotic (%) (Fibroblast; [5]) | Population Mitochondria Different-Phenotype (%) (Fibroblast; [6]) | Population Tubulin-Different-Phenotype (%) (HEK-293T; [2]) | Population Tubulin-Different-Phenotype (%) (HEK-293T; [1]) | Population Tubulin-Different-Phenotype (%) (HEK-293T; [3]) | Population Pyknosed Nuclei (%) (HEK-293T; [4]) | Population Pyknosed Nuclei (%) (HEK-293T; [2]) | Total Cell Count (HEK-293T; [2]) | Total Cell Count (U2OS; [1]) | further results
Cc1c(-c2cc(-c3ccccc3Cl)no2)cnn1C1CCNCC1.Cl | 5.8% and 18.42% | 53.87% and 7.3% | 18.67% and 2.22% | 474 and 146 | 19.81% and 4.79% | 13.9% and 42.48% | 4.54% and 69.05% | 1036 and 155 | 5.98% and 51.85% | 6.77% and 46.43% | 444 and 138 | – | – | – | – | – | – | – | – | – | Population Apoptotic (%) (Fibroblast; [1]): 6.56% and 31.43%; Population Mitotic Cells (%) (Fibroblast; [2]): 46.59% and 7.94%; Population Healthy Nuclei (%) (HEK-293T; [2]): 42.92% and 3.7%; Population Mitotic Cells (%) (HEK-293T; [2]): 40.3% and 12.16%; Population Healthy Nuclei (%) (U2OS; [2]): 43.31% and 8.7%; Population Membrane Permeable-Phenotype (%) (U2OS; [2]): 29.32% and 8.33%; Population Mitochondria Different-Phenotype (%) (U2OS; [2]): 5.76% and 50%; Population Mitotic Cells (%) (U2OS; [2]): 40.57% and 4.07%
CCn1c(-c2ccncc2)cc2c1CCNC2=O | – | 47.12% and 12.73% | 27.97% and 4.86% | – | 36.4% and 6.43% | 13.84% and 54.39% | 16.56% and 73.08% | 386 and 115 | – | – | – | 7.14% and 42.31% | 15.38% and 1.67% | 7.84% and 35.71% | – | – | – | – | – | – | Population Apoptotic (%) (Fibroblast; [3]): 11.11% and 40%; Population Fragmented Nuclei (%) (Fibroblast; [3]): 15.56% and 2.6%; Population Fragmented Nuclei (%) (Fibroblast; [4]): 16.92% and 5.41%; Population Fragmented Nuclei (%) (Fibroblast; [5]): 13.97% and 1.55%; Population Healthy Nuclei (%) (HEK-293T; [4]): 69.81% and 22.7%; Population Tubulin-Different-Phenotype (%) (HEK-293T; [5]): 28.57% and 0%; Population Healthy Nuclei (%) (HEK-293T; [2]): 40.96% and 10.29%; Population Membrane Permeable-Phenotype (%) (U2OS; [2]): 8.82% and 26.67%
CCC(=N\O)/C(C)=C/c1ccc(F)cc1 [A-079] | – | 65.15% and 19.13% | 55.56% and 15.08% | 581 and 190 | – | – | 0.84% and 15.85% | 1541 and 339 | – | – | 1023 and 273 | – | 14.42% and 1.74% | 1.85% and 29.49% | 3.7% and 37.14% | 7.69% and 26.32% | 15.15% and 56.84% | 11.38% and 49.36% | 1072 and 157 | 469 and 137 | Population Tubulin-Different-Phenotype (%) (Fibroblast; [6]): 4.65% and 16.86%; Population Mitochondria Different-Phenotype (%) (Fibroblast; [2]): 16.38% and 1.43%; Population Mitochondria Different-Phenotype (%) (HEK-293T; [3]): 34.87% and 5.26%; Population Tubulin-Different-Phenotype (%) (HEK-293T; [5]): 13.78% and 2.86%; Total Cell Count (HEK-293T; [5]): 544 and 177; Total Cell Count (U2OS; [4]): 637 and 187; Total Cell Count (U2OS; [5]): 489 and 158; Total Cell Count (U2OS; [6]): 1176 and 335
CCn1c(-c2nonc2N)nc2c(C#CC(C)(C)O)ncc(OCC3CCCNC3)c21 (stereo unspecified) | – | 46.33% and 7.59% | 34.53% and 5.81% | – | 46.08% and 7.36% | – | 3.31% and 34.07% | 633 and 178 | 1.89% and 27.72% | 1.45% and 28.43% | 656 and 196 | – | 13.04% and 2.78% | – | 5.7% and 45.45% | – | – | – | – | – | Population Apoptotic (%) (Fibroblast; [4]): 10% and 36.67%; Population Tubulin-Different-Phenotype (%) (Fibroblast; [4]): 6.14% and 18.45%; Population Mitochondria Different-Phenotype (%) (Fibroblast; [5]): 19.2% and 3.38%; Population Tubulin-Different-Phenotype (%) (Fibroblast; [6]): 4.35% and 14.81%; Population Tubulin-Different-Phenotype (%) (HEK-293T; [4]): 27.18% and 8.57%
Cc1ccc(-c2c(C(=O)CF)n(CCCO)c3ncnc(N)c23)cc1 | – | 58.84% and 12.24% | 52.68% and 11.85% | – | – | 9.92% and 40.21% | 1.66% and 42.34% | 1301 and 194 | – | – | – | – | 18.85% and 3.11% | 1.9% and 38.02% | 5.2% and 22.22% | – | 22.13% and 74.38% | 9.36% and 36.68% | 1026 and 199 | 387 and 104 | Population Fragmented Nuclei (%) (Fibroblast; [4]): 17.18% and 2.33%; Population Fragmented Nuclei (%) (Fibroblast; [6]): 17.96% and 2.78%; Population Mitochondria Different-Phenotype (%) (HEK-293T; [1]): 36.42% and 5.56%; Population Healthy Nuclei (%) (HEK-293T; [4]): 74.47% and 23.12%; Population Mitochondria Different-Phenotype (%) (HEK-293T; [5]): 32.23% and 10.53%; Population Apoptotic (%) (HEK-293T; [6]): 2.33% and 16.67%; Total Cell Count (U2OS; [4]): 516 and 134; Total Cell Count (U2OS; [6]): 975 and 220
CC(C)(C)c1cc(C(C)(C)C)c(NC(=O)c2c[nH]c3ccccc3c2=O)cc1O [IVACAFTOR] | – | – | 49.64% and 12.26% | 519 and 146 | 67.04% and 17.11% | 8.39% and 43.5% | 0.62% and 44.44% | 1267 and 178 | 0.4% and 28.83% | 1.36% and 41.82% | – | – | 20% and 4.79% | 0.62% and 32.1% | 2.94% and 20% | 1.46% and 31.58% | 21% and 65.07% | 12.88% and 49.71% | 762 and 178 | – | Population Fragmented Nuclei (%) (Fibroblast; [1]): 15.03% and 5%; Population Mitochondria Different-Phenotype (%) (Fibroblast; [1]): 17.39% and 4.44%; Population Apoptotic (%) (Fibroblast; [6]): 25% and 5.88%; Population Mitochondria Different-Phenotype (%) (HEK-293T; [5]): 37.6% and 11.54%; Population Mitochondria Different-Phenotype (%) (HEK-293T; [6]): 11.04% and 34.34%; Population Membrane Permeable-Phenotype (%) (U2OS; [5]): 5.1% and 20%; Population Fragmented Nuclei (%) (U2OS; [2]): 2.6% and 13.13%; Population Mitochondria Different-Phenotype (%) (U2OS; [2]): 1.49% and 32.58%
Cl.Cl.OCCOCCN1CCN(C(c2ccccc2)c2ccc(Cl)cc2)CC1 (stereo unspecified) [HYDROXYZINE HYDROCHLORIDE] | – | – | – | – | – | – | – | – | – | – | – | – | – | – | – | – | – | – | – | – | Population Mitotic Cells (%) (Fibroblast; [2]): 19% and 62%; Population Hoechst High Intensity Objects (%) (HEK-293T; [4]): 2% and 13%; Population Mitotic Cells (%) (U2OS; [3]): 41% and 11%; Population Mitotic Cells (%) (U2OS; [4]): 4% and 22%
COc1ccc(CC(=O)NC(N/C(=N/C#N)Nc2cccc3ncccc23)C(C)(C)C)cc1OC (stereo unspecified) | 2.06% and 14.77% | 58.89% and 18.75% | – | 549 and 181 | – | 10.45% and 36.6% | 1.73% and 48.72% | 1398 and 194 | – | – | 965 and 285 | 7.69% and 29.63% | – | 2.98% and 36.44% | 7.55% and 36.67% | 8.48% and 45.45% | – | 10.62% and 36.79% | 971 and 193 | – | Population Apoptotic (%) (Fibroblast; [1]): 4.17% and 14.29%; Population Apoptotic (%) (Fibroblast; [4]): 4.35% and 23.08%; Population Apoptotic (%) (HEK-293T; [2]): 6.8% and 22.54%
CN1CC[C@@]23CCCC[C@@H]2[C@@H]1Cc1ccc(O)cc13.O=C(O)C(O)C(O)C(=O)O | – | – | – | 659 and 197 | – | – | 1.08% and 15.21% | 1598 and 337 | – | – | – | – | 17.05% and 2.64% | 1.19% and 29.01% | 5.02% and 25% | 4.62% and 46.15% | 14.89% and 50% | – | 1052 and 235 | 465 and 138 | Total Cell Count (HEK-293T; [5]): 484 and 150; Population Apoptotic (%) (HEK-293T; [6]): 2.11% and 16.67%; Population Apoptotic (%) (HEK-293T; [2]): 4.81% and 18.84%; Population Fragmented Nuclei (%) (U2OS; [3]): 1.59% and 35.94%; Population Mitochondria Different-Phenotype (%) (U2OS; [4]): 0.34% and 12.93%; Total Cell Count (U2OS; [4]): 656 and 171; Population Fragmented Nuclei (%) (U2OS; [5]): 1.13% and 30.21%; Total Cell Count (U2OS; [6]): 1243 and 281; Population Fragmented Nuclei (%) (U2OS; [2]): 3.17% and 17.36%
CCCn1c(=O)c2[nH]c(C3CCCC3)nc2n(CCC)c1=O [1,3-DIPROPYL-8-CYCLOPENTYLXANTHINE [DPCPX]] | 1% and 16% | – | – | – | – | – | – | – | – | – | – | 63% and 20% | 1% and 12% | – | – | – | – | – | – | – | Population Hoechst High Intensity Objects (%) (HEK-293T; [3]): 5% and 18%; Population Hoechst High Intensity Objects (%) (HEK-293T; [5]): 4% and 15%; Population Mitotic Cells (%) (U2OS; [3]): 31% and 0%

Certain results were filed several times, with different values. The other results are left out here. The source may hold further records. Values given together are repeated measurements (runs, samples, wells, individuals or studies).
